The values that follow come from the supplement of paper PMC4723716.

The full ranking holds about 3,600 compounds; the median of “viability index relative to DMSO control” is about 0.81, and the lowest 2% start at about 0.13. This is one part of the list.
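Note: 384-well serum-free SaLSSA: MitoTracker Red CMXRos staining with saponin lysis, high-content imaging, treated-well particle count divided by plate-mean count of DMSO wells.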

In this test the test system is Plasmodium falciparum NF54 stage V gametocytes. Briefly: viability index relative to DMSO control (fraction); higher = less gametocyte killing. The following applies: 1.25 µM, incubation time: 72 h.
On to `CCC(C)NCC(O)(c1ccc(Cl)cc1)c1ccc(Cl)cc1` (stereo not given), for which the viability index worked out at 0.699. The molecule `O=C1C2C3c4ccccc4C(c4ccccc43)C2C(=O)N1CCO` (stereo not given) gave a viability index of 0.585. As for `OC(Cn1cnc(-c2ccccc2)c1-c1ccccc1)Cn1c2ccc(Cl)cc2c2cc(Cl)ccc21` (stereo not given), the figure is 0.534; as for `O=C(Nc1ccc(-c2nc3ccccc3[nH]2)cc1)c1ccccc1Oc1ccccc1`, 0.521; as for `COc1ccc(-c2csc(Nc3cccc(Cl)c3C)n2)cc1OC`, 0.776. As for `c1ccc(-c2nc(-c3ccc4cccnc4c3)n(-n3c(-c4ccc5cccnc5c4)nc(-c4ccccc4)c3-c3ccccc3)c2-c2ccccc2)cc1`, the figure is 0.601; as for `Cc1ccc(NC(=O)C2C3C=CC4(O3)C2C(=O)N(CCCN2CCOCC2)C4C(=O)NC2CCCC(C)C2C)cc1Cl` (stereo not given), 0.888. Regarding `FC(F)(F)c1cccc(Nc2nc3nonc3nc2Nc2ccc(Br)cc2)c1`, the viability index was 0.479. Turning to `CC(C)NC(=O)c1ccc(OC2CCN(CC3CCCCC3)CC2)c(Cl)c1`, the viability index turned out to be 0.75. `OC(CN1CCN(CC=Cc2ccccc2)CC1)Cn1c2ccc(Br)cc2c2cc(Br)ccc21` (stereo not given) displayed a viability index of 0.559. As to `Cc1cccn2c(=O)c3cc(C(=O)NCc4ccco4)c(=N)n(CCc4ccccc4)c3nc12`, the viability index is 1.12. The molecule `COc1cccc(-c2nc(CS(=O)(=O)CC(=O)N3CC(C)CC(C)C3)c(C)o2)c1` (stereo not given) had a viability index of 0.859. Consider `CCN1C(=Cc2cccc[n+]2C)Sc2ccccc21`, for which the viability index was 1.22. For `N#Cc1ccc(NC(=O)CCCC(=O)O)cc1` the value was 1.04; for `COC(=O)C1=CN(Cc2ccc(Cl)cc2)C=C(C(=O)OC)C1c1ccc(Cl)c(Cl)c1`, 0.888; for `CCCSc1nc(N)c2c3c(sc2n1)CN(CCC)CC3`, 0.78.

Regarding `CC(C)c1ccc(C=C2SC(=Nc3ccccc3)NC2=O)cc1`, the viability index was found to be 0.532. The molecule `COc1ccc(C(=O)NC(c2ccccc2Cl)c2cc(Cl)c3cccnc3c2O)cc1` (stereo not given) came in with a viability index of 0.913. Molecule `CC1=C(C(=O)OC(C)C)C(c2ccc([N+](=O)[O-])cc2)C2=C(CC(C)(C)CC2=O)N1` (stereo not given) returned a viability index of 1.15. Molecule `C=CCSc1nc2sc3c(c2c(=O)n1-c1ccccc1)CCN(CCC)C3` displayed a viability index of 0.942. Molecule `COc1cc(C(C(=O)NCc2ccccc2)N(C(=O)c2snc(C(N)=O)c2N)c2ccc(C(C)C)cc2)cc(OC)c1OC` (stereo not given) registered a viability index of 0.785. The molecule `COc1cc(NC(C)=C2C(=O)c3ccccc3C2=O)c(OC)cc1Cl` yielded a viability index of 0.933. As for `CN(Cc1ccsc1)C(=O)CCc1nnc(CCCc2ccccc2)o1`, the figure is 0.885; as for `CCOC(=O)C[n+]1cc(CC)sc1N`, 0.699; as for `O=C(CSc1nc2cc3c(cc2c(=O)n1Cc1ccco1)OCO3)Nc1cc(C(F)(F)F)ccc1Cl`, 0.731. For `C[C@H]1[C@@H](O)O[C@@H]2O[C@]3(C)CC[C@H]4[C@H](C)CC[C@@H]1C24OO3` the value was 0.422.

`Fc1ccc(C(CCNc2ncnc3c2[nH]c2ccccc23)c2ccco2)cc1` (stereo not given) gave a viability index of 0.785. As for `CCOC(=O)c1c(N)n(-c2ccc(CC)cc2)c2nc3ccccc3nc12`, the figure is 1.05; as for `c1ccc2c(NCCc3c[nH]cn3)c3ccccc3nc2c1`, 0.988; as for `COC(=O)c1ccc(C2C3=C(O)CC(c4ccc(F)cc4)CC3=Nc3ccccc3N2C(=O)c2ccccc2)cc1` (stereo not given), 0.614. `Cc1nnc2sc(SCc3cccc([N+](=O)[O-])c3)nn2c1=O` displayed a viability index of 0.679.

`COc1ccc(S(=O)(=O)N2CCN(C(=S)NC3CCCCC3)CC2)cc1` displayed a viability index of 0.683. For `O=S1(=O)CCC(O)c2ccsc21` (stereo not given) the value was 0.865; for `CCOC(=O)c1c(NC(=O)CSc2nnc(CNC(=O)c3cccc(C)c3)n2-c2cccc(C)c2)sc2c1CCC2`, 0.834. Molecule `CC[n+]1c(C)n(-c2ccccc2)c2ccc(C3Nc4ccccc4S3)cc21` (stereo not given) gave a viability index of 0.803.

`CCC(Sc1nc(C)cc(-c2ccccc2)n1)C(=O)Nc1cccc2ccccc12` (stereo not given) had a viability index of 0.996. For `COc1ccc(C[n+]2cc(-c3ccc(Cl)cc3)n3ccccc32)cc1` the value was 0.703; for `CCOC(=O)c1cnc2ccccc2c1NCCCN(C)C`, 0.849; for `COc1cc2c(cc1OC)C1Cc3ccc(OC)c(OC)c3CN1CC2` (stereo not given), 0.652.

Molecule `Cc1cc(NC(=O)C2c3ccccc3C(=O)N(CC(C)C)C2c2cccs2)no1` (stereo not given) yielded a viability index of 0.225. `C=CCSc1nnc2c(n1)[nH]c1ccc(OCC)cc12` displayed a viability index of 0.656.

The molecule `N#Cc1c2c(c(N3CCN(CCO)CC3)n3c1nc1ccccc13)CCC2` came in with a viability index of 1.14. For `COc1cc(C=NNc2nc3ccccc3[nH]2)ccc1O`, the viability index was 0.545. For `CSC1=C(C#N)C(c2ccc(O)cc2)CC(=O)N1` (stereo not given) the value was 1.02; for `COc1ccc(OC)c(NC(=O)COc2cc3ccccc3cc2C(=O)Nc2cc(OC)c(Cl)cc2OC)c1`, 0.295; for `CCN(CC)CCCN(Cc1cc2ccc(C)cc2[nH]c1=O)C(=S)Nc1cccc(Cl)c1`, 0.703. For `CSc1ccc(Cl)c(Cl)c1` the value was 0.703; for `CC(=O)N(C1=C(N2CCOCC2)C(=O)c2ccccc2C1=O)c1ccc(Cl)c(Cl)c1`, 0.351. Molecule `N#Cc1c2c(c(N3CCN(Cc4ccc(F)cc4)CC3)n3c1nc1ccccc13)CCC2` yielded a viability index of 0.745.

In turn, `CCOC(=O)c1cccc(NC(=O)CC2C(=O)N(c3ccc(F)cc3)C(=O)N2CCC(C)C)c1` (stereo not given) registered a viability index of 0.51. As for `O=C(c1ccccc1F)N1CCN(Cc2ccccc2C(F)(F)F)CC1`, the figure is 0.94; as for `O=C1N(c2ccccc2)C[C@@H]2C[C@@H](c3ccc(C#CCCO)cc3)N3CCC[C@@]123`, 0.808; as for `CCCCCn1c(SCc2ccc(C)cc2)nc2cc(C(=O)NCc3ccco3)ccc2c1=O`, 1.22. For `Cc1ccc(-c2c3c4n(c(-c5ccc(Cl)cc5)cn4c2C(=O)Nc2ccccc2Cl)CCCC3)cc1` the value was 0.758. For `COc1cccc(-c2cn3c(n2)sc2cc(C(=O)NC4CCN(Cc5ccccc5)CC4)ccc23)c1` the value was 0.964; for `c1ccc(C2=Nc3ccccc3N=C(c3ccccc3)c3ccccc32)cc1`, 0.315; for `N=c1c2c(n(Cc3ccc([N+](=O)[O-])cc3)c3c1CCC3)CCCC2`, 0.569. The molecule `CC12CCC(CN(CC(O)Cn3c4ccc(Br)cc4c4cc(Br)ccc43)C1)C2(C)C` (stereo not given) showed a viability index of 0.829. Molecule `CC(CCc1ccccc1)NCC(O)c1cccc([N+](=O)[O-])c1` (stereo not given) showed a viability index of 0.498. For `O=C1C=C(Nc2ccc(O)cc2)c2ccccc2C1=O` the value was 0.942.

In the case of `CCOC(=O)COC1=C(CCCCC2CCCCC2)C(=O)c2ccccc2C1=O`, the viability index was found to be 0.779.

Turning to `NC(=O)c1ccc(-n2nnnc2SCc2ccc(Cl)cc2)cc1`, the viability index amounted to 0.865.

In the case of `N#CC(=CC=Cc1ccc([N+](=O)[O-])o1)c1nc2ccccc2[nH]1`, the viability index stood at 0.0143. `Cc1ccc(C[n+]2cc(-c3ccc(C)cc3)n3c2CCC3)cc1` came in with a viability index of 0.776. `Cc1cccc(CN2CCC(CNC(=S)Nc3ccc4nc(N5CCN(C)CC5)cc(C)c4c3)CC2)c1`: the viability index was found to be 0.956. In turn, `CCc1nc2nc(C)cc(Nc3ccc(I)cc3)n2n1` came in with a viability index of 0.98.

For `CCCN(Cc1cc(OC)c2c(c1)OCO2)CC1CC1`, the viability index came out at 0.914. As for `Cn1c(=O)c2c(nc(N3CCN(C(=O)Nc4ccc(F)cc4F)CC3)n2C)n(C)c1=O`, the figure is 0.996.

Turning to `CC(=O)N(C)C1=C(N2CCOCC2)C(=O)c2ccccc2C1=O`, the viability index was found to be 0.18. For `COc1ccc2nc(C)cc(Nc3ccc(Oc4ccc(Cl)c5ccccc45)c(Cl)c3)c2c1` the value was 0.591; for `N#Cc1c(N)nc(SCC(=O)c2ccc(Cl)cc2)c(C#N)c1-c1ccco1`, 0.864. As for `CC(=NOC(=O)c1ccco1)c1cnccn1`, the figure is 0.914; as for `Cc1cc(Nc2ccc(C(=O)n3ccnc3)cc2)n2ncnc2n1`, 0.916; as for `CN(C)CCCNc1ncnc2c1[nH]c1ccc(Cl)cc12`, 0.874. As for `CN(C)CCCNc1c2ccccc2nc2ccccc12`, the figure is 0.0224; as for `O=C(Nc1ccc(-c2nc3cc(NC(=O)c4cccs4)ccc3[nH]2)cc1)c1cccs1`, 1.05. On to `Cc1ccnc(Nc2nc(-c3ccc(Cl)cc3)cs2)c1`, for which the viability index was found to be 0.938. For `Cc1ccc(Nc2nc(N)c3ccccc3n2)cc1Cl` the value was 0.638; for `Cc1ccc(-c2nc3ncccc3o2)cc1NC(=O)COc1ccc(C(C)(C)C)cc1`, 0.928; for `COc1cc2nc(SCC(C)C)n(CCCn3ccnc3)c(=N)c2cc1OC`, 1.01. `COc1ccc(CCNC(=S)Nc2ccccc2C)cc1OC` showed a viability index of 0.795. For `CCOC(=O)C1=C(C)NC2=C(C(=O)C(C(=O)OCC)C(c3ccccc3OC)C2)C1c1cccs1` (stereo not given) the value was 0.656; for `Cc1c(C)c(C)c(CNC(=S)NN)c(C)c1C`, 0.78; for `O[C@H]1[C@H]2c3cc4c(cc3CN3CCC(=C[C@@H]1O)[C@H]23)OCO4`, 0.722. On to `O=C(c1cccc([N+](=O)[O-])c1)c1ccc(Cl)c(Cl)c1`, for which the viability index was 0.643. For `O=C(C[n+]1ccccc1)NN=Cc1ccc(Cl)c(Cl)c1`, the viability index came out at 0.857. On to `O=C(NCCCCCCNC(=O)Nc1nc(-c2ccc(F)cc2)cs1)Nc1nc(-c2ccc(F)cc2)cs1`, for which the viability index is 0.663.

Molecule `CCOC(=O)C1=C(C)N=c2sc(=Cc3ccc(I)o3)c(=O)n2C1c1ccccc1Cl` (stereo not given) registered a viability index of 0.9. On to `Cc1cc(C)n(-c2ccc(NC(=O)C3CCN(Cc4cnc(C)s4)CC3)cc2)n1`, for which the viability index turned out to be 0.933. The molecule `COc1ccc(NC(=O)c2cccc([N+](=O)[O-])c2C)cc1` yielded a viability index of 0.939.
